Source: ChEMBL document CHEMBL4888484, “Replenishing the malaria drug discovery pipeline: Screening and hit evaluation of the MMV Hit Generation Library 1 (HGL1) against asexual blood stage Plasmodium falciparum ,using a nano luciferase reporter read-out” (2022)
Hit rate of the full screen: of about 150,000 compounds, about 540 (0.36%) showed an effect of 50% or more. The list shows a part of the results.

These compounds were tested on Plasmodium falciparum (assay: Primary screen in NF54 nanoGlo assay, in single point, at 2uM, 72h; a lower Z score goes with more inhibition). Conditions: timepoint 72 hour.
Format: functional, Erythrocyte
`CCN1C(=O)CCc2cc(N[C@@H](C)CCn3cccn3)ccc21` was tested, and the “% Inhibition” value was -4% and the Z score was 0.72.
In the case of `Cc1noc(C)c1[C@@H]1CCCN1S(=O)(=O)c1ccc(C(C)(C)C)cc1`, the “% Inhibition” value is reported as -2% and the Z score is reported as 0.42.
With `Cc1ccc(-n2nc(N3CCCN(C(=O)Cc4ccc(Cl)cc4)CC3)ccc2=O)cc1C` the “% Inhibition” value was 10% and the Z score was -1.19.
For `CC(C)N1CC[C@@H]2[C@H]1C(=O)NC[C@H](CCC(=O)NCc1cccs1)N2C`, the “% Inhibition” value was 11% and the Z score was -1.48.
In the case of `O=C([C@H]1CCCN(Cc2ccco2)C1)N1CCN(c2nccs2)CC1`, the “% Inhibition” value is reported as -3% and the Z score is reported as 0.49.
`c1cnc2c(CN3CCCO[C@@H](CN4CCCCC4)C3)cnn2c1` was tested, and the “% Inhibition” value was -7% and the Z score was 0.88.
In the case of `O=C(Cn1nc2ccc(C(=O)NCc3ccccc3)cn2c1=O)Nc1ccc2c(c1)CCC2`, the “% Inhibition” value is reported as -21% and the Z score is reported as 1.84.
With `O=C(NC[C@]1(O)CCCc2occc21)c1ccccc1F` the “% Inhibition” value was 14% and the Z score was -1.72.
For `C[C@@H]1NC(=O)N(c2ccccc2NC(=O)CN(C)Cc2ccc(F)cc2)C1=O`, the “% Inhibition” value was -9% and the Z score was 0.9.
In the case of `COc1ccc(CN2CCC(CN3CCCCC3)CC2)c(F)c1F`, the “% Inhibition” value is reported as -2% and the Z score is reported as 0.43.
`CC(C)c1ccc(CC(=O)N2CCn3nc(CCC(=O)O)cc3C2)cc1` was tested, and the “% Inhibition” value was -14% and the Z score was 1.97.
With `O=C(CN1C(=O)OC[C@@H]1c1ccccc1)N1CCCCCC1` the “% Inhibition” value was -3% and the Z score was 0.49.
With `C=C(C)C1OCCC1CNC(=O)c1ccc(Cl)cn1` (stereo not drawn) the “% Inhibition” value was -7% and the Z score was 0.98.
In the case of `Cc1ncc(CC(=O)NCc2cccnc2Oc2ccccc2F)c(=O)[nH]1`, the “% Inhibition” value is reported as -20% and the Z score is reported as 1.94.
In the case of `CCC=C(C)C(=O)N1CC2(CCOCC2)[C@H]1c1ccccc1`, the “% Inhibition” value is reported as -3% and the Z score is reported as 0.41.
With `CCc1ccccc1NC(=O)CN1N=C(c2ccccc2)c2cc(Cl)ccc2S1(=O)=O` the “% Inhibition” value was -17% and the Z score was 1.57.
For `COc1ccc(C(=O)N[C@@H]2CCC[C@@H]2C(=O)NCCc2ccccn2)cn1`, the “% Inhibition” value was -1% and the Z score was 0.19.
`O=C(COc1ccc(Cl)cc1Cl)N[C@H]1C[C@H]2C(=O)NCC(=O)N2C1` was tested, and the “% Inhibition” value was -18% and the Z score was 2.22.
`Cc1ccc(N(C)C2CCN(C(=O)C[C@H]3CCCO3)CC2)nn1` was tested, and the “% Inhibition” value was -4% and the Z score was 0.49.
For `CN(C(=O)CN(Cc1cscn1)c1ccccc1)C1CC1`, the “% Inhibition” value was -2% and the Z score was 0.31.
For `Cn1cc(Cl)cc1C(=O)N[C@@](C)(Cn1cccn1)C(N)=O`, the “% Inhibition” value was -9% and the Z score was 1.01.
`Cc1nc([C@H](C)Nc2ncnc3[nH]cnc23)c(C)s1` was tested, and the “% Inhibition” value was -6% and the Z score was 1.09.
In the case of `C=CCC[C@H](O)CN(CCCOC)Cc1ccc(F)cc1F`, the “% Inhibition” value is reported as -10% and the Z score is reported as 1.49.
For `COCCN1C(=O)c2ccc(C(=O)Nc3nnc(C(C)C)s3)cc2C1=O`, the “% Inhibition” value was -17% and the Z score was 2.09.
In the case of `CC1(C)CCC[C@H](CNC(=O)c2ccnn2CC(F)F)O1`, the “% Inhibition” value is reported as -4% and the Z score is reported as 0.58.
With `COc1ccccc1C(=O)Nc1cc(-c2ccoc2C)nn1CCO` the “% Inhibition” value was -4% and the Z score was 0.56.
In the case of `Cc1ccc(CN(C(=O)[C@H]2OCCO[C@H]2C)c2ccc(F)cc2)o1`, the “% Inhibition” value is reported as 8% and the Z score is reported as -0.97.
For `Cn1cc(C(=O)N2CC[C@H](n3cnc4ccccc43)C2)nn1`, the “% Inhibition” value was -15% and the Z score was 1.98.
`FC(F)c1cc(C(F)F)n2nc(-c3nnc(-c4cccc(C(F)(F)F)c4)o3)cc2n1` was tested, and the “% Inhibition” value was -38% and the Z score was 4.43.
For `O=C(c1cc2ccccc2[nH]1)N1CCC(Cn2cnc3ccccc32)CC1`, the “% Inhibition” value was 14% and the Z score was -1.87.
In the case of `COc1ccc2c(c1)OC(C)(C)CN(Cc1cn(C)cn1)C2`, the “% Inhibition” value is reported as 2% and the Z score is reported as -0.31.
With `O=C(O)[C@H]1CC[C@@H](C(=O)N(CCc2ccc(F)cc2)Cc2cccnc2)C1` the “% Inhibition” value was -2% and the Z score was 0.41.
`CCN(C(=O)c1sc(-c2cccs2)nc1C)c1ccccc1C` was tested, and the “% Inhibition” value was 4% and the Z score was -0.83.
For `CC1CCN(c2ccc(C(=O)NCCN3CCOCC3)cc2S(=O)(=O)N2CCC(C)CC2)CC1`, the “% Inhibition” value was -12% and the Z score was 1.94.
With `Cc1nc(C)c(S(=O)(=O)NCc2cnn3c2CCCC3)s1` the “% Inhibition” value was -13% and the Z score was 1.6.
For `CCOc1ccc(OCc2ccc(C(=O)N3CCCCC3)o2)cc1`, the “% Inhibition” value was -11% and the Z score was 1.5.
`C[C@@H]1CN(C(=O)C(c2ccccc2)N(C)C)CCN1C(=O)OC(C)(C)C` (stereo partly drawn) was tested, and the “% Inhibition” value was 0% and the Z score was 0.03.
In the case of `Cc1cccnc1CN(C)Cc1cccc([C@H](C)N(C)C)c1`, the “% Inhibition” value is reported as -4% and the Z score is reported as 0.8.
In the case of `Cc1cc(CN(C)C(=O)c2ccco2)no1`, the “% Inhibition” value is reported as -10% and the Z score is reported as 1.43.
In the case of `Cc1nc2ncccn2c1C(=O)NCc1cnc2c(c1)CCC2`, the “% Inhibition” value is reported as -1% and the Z score is reported as 0.16.
For `CCOC(=O)N1CCC(N2Cc3cccc(C(=O)NCc4ccc(C)cc4)c3C2=O)CC1`, the “% Inhibition” value was 2% and the Z score was -0.28.
`CCN1CCOC(CNCC(C#N)CCC#N)C1` (stereo not drawn) was tested, and the “% Inhibition” value was -6% and the Z score was 0.63.
For `Cc1cc(NC(=O)N2CCC(C#N)CC2)n([C@@H](C)C2CC2)n1`, the “% Inhibition” value was -9% and the Z score was 1.72.
`CCN(CC)C(=O)N1CCN(C(=O)c2ccccn2)[C@@H]2CS(=O)(=O)C[C@@H]21` was tested, and the “% Inhibition” value was -4% and the Z score was 0.85.
For `O=C(O)[C@H]1CCCCN1C(=O)Cc1cccc(Br)c1`, the “% Inhibition” value was -4% and the Z score was 0.69.
In the case of `COCCn1nnnc1[C@@H]1CN(c2nc(N)nc3c2CCCC3)CCO1`, the “% Inhibition” value is reported as -6% and the Z score is reported as 0.74.
With `CCN1C[C@@H](CN(C)C(=O)C2(C)COC2)CC1=O` the “% Inhibition” value was -2% and the Z score was 0.43.
For `C[C@H](CO)NS(=O)(=O)Cc1ccccc1Cl`, the “% Inhibition” value was -1% and the Z score was 0.15.
`O=S1(=O)CC[C@H](c2csc(Cc3c(F)cccc3Cl)n2)C1` was tested, and the “% Inhibition” value was -13% and the Z score was 1.09.
In the case of `CCCN(CCC)S(=O)(=O)N1CCN(Cc2cccnc2N)CC1`, the “% Inhibition” value is reported as -3% and the Z score is reported as 0.62.
In the case of `FC(F)(F)c1cccc2c(NCc3cccnc3N3CCOCC3)ccnc12`, the “% Inhibition” value is reported as -10% and the Z score is reported as 1.15.
With `CC(C)(CNC(=O)c1ccc2[nH]c(=O)[nH]c2c1)c1cccs1` the “% Inhibition” value was -2% and the Z score was 0.38.
`CCc1nnc(NCc2csc(C)n2)s1` was tested, and the “% Inhibition” value was 9% and the Z score was -1.19.
With `CC[C@](O)(CCCO)CNC(=O)c1cc(Cl)c(C)c(Cl)c1` the “% Inhibition” value was -3% and the Z score was 0.65.
